Some of the results follow. Sequences were assembled here from the parent chain. Inactive controls read about 0.05.
B1: TEV protease; numbered along this chain (parent)
chain: MGESLFKGPRDYNPISSSICHLTNESDGHTTSLYGIGFGPFIITNKHLFRRNNGTLVVQSLHGVFKVKDTTTLQQHLVDGRDMIIIRMPKDFPPFPQKLKFREPQREERICLVTTNFQTKSMSSMVSDTSCTFPSGDGIFWKHWIQTKDGQCGSPLVSTRDGFIVGIHSASNFTNTNNYFTSVPKNFMELLTNQEAQQWVSGWRLNADSVLWGGHKVFMVKPEEPFQPVKEATQL

Variants of: B1
Experiment: raw area under fraction-flipped curve 0-4 h after induction (AUC4h, not background-subtracted), DNA-recorder readout of cleavage of the substrate (dimensionless); higher = more cleavage of the substrate by the protease variant
Settings: temperature: 34 °C; time window: 0-4 h after rhamnose induction
Procedure: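 In vivo DNA recorder in E. coli TOP10(DE3) ΔrhaA at 34 °C. Each TEVp single-site mutant (parent TEVp 0) is paired with a single-site variant of the 7-mer TEVs (canonical ENLYFQ|S). The substrate sits between flexible linkers in a Bxb1-sfGFP-TEVs-SsrA fusion, so cleavage stabilises Bxb1 and speeds flipping of a recombination array, read by NGS. The value is the raw area under the fraction-flipped curve over 0-4 h after rhamnose induction (AUC4h), with ≥20 reads per time point. It is not background-subtracted; inactive controls average about 0.047.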
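Also: Bxb1 expression induced with 0.2% (w/v) L-rhamnose at OD600 near 0.5, cultures sampled hourly, flipped fraction per protease–substrate barcode pair counted by paired-end Illumina sequencing.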

Variant	area with substrate ENLCFQS	area with substrate ENLDFQS	area with substrate ENLEFQS	area with substrate ENLFFQS	area with substrate ENLIFQS	area with substrate ENLKFQS	area with substrate ENLLFQS	area with substrate ENLNFQS	area with substrate ENLQFQS	area with substrate ENLRFQS	area with substrate ENLTFQS	area with substrate ENLWFQS	area with substrate ENLGFQS	area with substrate ENLHFQS	area with substrate ENLMFQS	area with substrate ENLPFQS	area with substrate ENLSFQS	area with substrate ENLVFQS
P96F	0.0756	0.0564	0.0706	0.0948	0.0749	0.0733	0.0747	0.0685	0.0655	0.0905	0.0537	0.0666	–	–	–	–	–	–
P96Y	0.0725	–	0.0668	–	0.0983	–	0.0894	0.0467	0.0597	–	–	0.0795	0.0557	0.0725	0.0546	0.0516	0.0395	0.0676
I167K	0.0357	0.0586	0.0582	0.0692	0.0583	0.0605	0.0541	0.0635	0.0604	–	–	0.0612	0.0611	0.055	0.0685	0.0421	0.0731	–
G80C	0.0805	–	–	0.0746	0.106	0.0545	0.0674	0.0623	0.0714	–	–	0.0673	–	0.0704	–	0.0685	0.0745	–
C152A	0.0702	0.0657	0.062	0.0631	0.0616	0.0604	0.0586	0.0496	–	0.0766	–	–	0.0457	0.0646	0.0651	–	0.0593	–
S32P	0.069	0.0599	0.049	0.0542	–	0.0603	–	0.0601	0.0555	0.0681	–	0.0739	0.0539	0.0515	–	0.0521	0.0583	0.0351
A232S	0.0882	–	–	0.0901	0.0815	0.0797	–	0.0586	0.111	0.0645	–	0.0736	–	0.081	0.0978	0.0775	0.052	–
G8S	0.0844	0.0671	–	0.0805	0.0854	0.0718	0.0625	0.0606	–	0.0743	–	–	–	0.0662	–	0.0539	0.0603	–
G136Q	0.0451	0.0602	0.068	0.0847	0.0617	0.0749	0.0714	0.0694	0.0717	0.08	–	0.0667	0.0677	0.0654	0.0904	–	0.0689	–
P40H	0.0739	0.067	0.0643	0.0825	0.0901	0.0736	0.0576	0.0632	–	0.0887	–	0.0589	0.08	0.0614	0.0817	0.0619	0.0614	–
T192H	0.0684	0.0651	–	0.0998	0.0801	0.0742	–	0.0668	–	0.0701	–	0.0751	0.0954	0.074	–	0.0753	0.0617	–
S32M	0.0681	–	0.0654	0.0882	–	0.0838	0.0595	–	–	0.0759	–	0.0604	–	–	–	0.0654	0.0626	0.0972
T44A	0.0637	0.0598	0.0616	0.0704	0.0717	0.0694	0.0735	0.056	–	0.0956	–	0.0663	0.0646	0.0577	–	0.0585	0.067	–
Q105W	0.0746	0.0829	0.0564	0.0699	0.0742	0.0768	–	0.0625	0.0728	0.0748	–	–	0.0711	–	–	0.0584	0.055	–
M88W	0.0628	0.0444	0.0567	0.0715	0.0748	0.0858	0.0685	0.0631	0.0564	0.0591	–	–	–	0.0625	0.0807	0.0532	0.0572	0.0782
G8K	0.0729	–	0.0662	0.0881	–	–	–	0.0714	–	–	–	–	–	–	–	0.0392	–	–
P104W	0.0546	0.0554	0.0365	0.0517	0.0434	0.0576	–	0.0514	–	–	–	–	0.0668	0.0369	–	0.0563	0.03	0.0532
L56P	0.0701	0.0501	0.0455	0.0428	0.0378	0.0611	–	0.0522	0.0476	0.0416	–	–	–	0.0468	–	0.0495	–	–
K216I	0.0711	0.0562	–	–	–	0.0767	0.0669	0.0625	0.069	–	–	–	–	–	–	0.0627	–	–
V200P	0.062	0.0633	0.085	0.0693	–	0.0701	–	0.0693	0.0634	–	–	0.025	0.0566	–	–	0.0799	0.0559	–
V64K	0.0565	0.0556	0.0624	0.0693	0.0845	0.121	0.0637	0.0603	–	–	–	0.057	–	0.0789	–	0.0499	0.0439	–
R160N	0.0619	0.0618	0.0474	0.0934	–	0.0621	0.098	0.0724	0.0816	–	0.0753	0.0781	0.0433	0.0725	0.0618	0.058	–	–
W144K	0.0771	–	–	–	–	0.0742	–	0.0679	–	–	–	–	–	0.0703	–	0.0654	–	–
F117N	0.084	0.0629	0.0563	–	0.0904	0.0897	0.0489	0.0676	0.0608	0.0804	–	0.0848	–	0.0629	0.0836	0.0627	0.0609	0.0844
P40D	0.0827	0.0709	0.0592	0.0984	–	0.0818	–	0.0716	0.0785	0.0931	–	–	0.0647	–	–	–	0.0605	–
T176D	0.0681	0.0777	–	–	–	0.061	–	0.0733	0.0693	0.0567	–	–	–	0.0536	–	–	0.0598	0.0848
L112I	0.0768	0.0483	0.0637	0.0707	–	0.0821	–	0.0784	0.0678	0.0784	–	–	0.0631	0.0577	–	0.0704	0.0798	–
K216R	0.0756	–	–	0.123	–	–	–	–	–	–	0.0824	–	–	0.0668	–	0.056	–	0.103
K216S	0.0549	0.0622	0.0572	0.0714	–	–	0.0615	0.0638	–	–	–	–	–	–	–	0.0446	–	–
A232H	0.0787	–	0.0619	0.0823	–	–	–	–	–	–	–	–	–	0.0905	–	–	–	–

From the supplement of paper PMC12217912
